Measured values: patent US20230190870A1, “Method for Treating Lysosomal Storage Diseases with Histatin Peptides” (THE BOARD OF TRUSTEES OF THE UNIVERSITY OF ILLINOIS, priority 2020, published 2023)
Square brackets hold non-standard residues; d marks the D form. Peptide text beside a SMILES is read from it. pS = N[C@@H](COP(=O)(O)O)C(=O)O

Biological target: T1, TMEM97 (108-176) (Homo sapiens, UniProt Q5BJF2)
T1 construct: Three peptides, TMEM97 (108-176), TMEM97 (108-143) and TMEM97 (144-176), were synthesized; made in house; host or cells: chemical solid-phase synthesis (Fmoc, Wang resin)
Test: Isothermal titration calorimetry, TMEM97 (108-176)
Format: binding
Settings: ITC
Method: Isothermal Titration Calorimetry (ITC). The three synthesized peptides, TMEM97 (108-176), TMEM97 (108-143) and TMEM97 (144-176) were prepared in ITC buffer (10 mM Tris, pH 7.4, 150 mM NaCl, 0.05% polysorbate 20) at 40 μM concentration and placed in the sample cell. All ITC experiments were performed while stirring at 395 rpm, in ITC buffer at 25° C. using a VP-ITC titration microcalorimeter from MicroCal™, LLC (Northampton, Mass.). The microsyringe was loaded with a Histatin 1 solution (500 μM in ITC buffer). All titrations were conducted using an initial injection of 2.5 μL followed by 35 identical injections of 5 μL with a duration of 16 seconds (per injection) and a spacing of 210 seconds between injections. The buffer control titration (Histatin 1 into buffer) signals were subtracted from the experimental data. The collected data were evaluated using NITPIC (NIH), SEDPHAT (NIH), and GUSSI (NIH).
To determine more precisely which segment of TMEM97 is necessary for binding of Hst1, multiple synthetic fragments of TMEM97 were generated (Table 6) and binding to Hst1 was tested using SPR. […] Smaller fragments of the C-terminal of TMEM97 were then constructed to represent the (predicted) luminal (108-143) and cytoplasmic (144-176) exposed segments of the C-terminus of TMEM97 based on modeling experiments previously described. […]

SMILES: CC(C)C[C@H](NC(=O)[C@H](Cc1ccc(O)cc1)NC(=O)[C@H](CC(N)=O)NC(=O)[C@H](CO)NC(=O)CNC(=O)[C@H](Cc1ccc(O)cc1)NC(=O)[C@H](CC(=O)O)NC(=O)CNC(=O)[C@H](Cc1ccc(O)cc1)NC(=O)[C@H](Cc1ccccc1)NC(=O)[C@@H]1CCCN1C(=O)[C@H](Cc1ccccc1)NC(=O)[C@H](CCC(=O)O)NC(=O)[C@H](CCCNC(=N)N)NC(=O)[C@H](Cc1c[nH]cn1)NC(=O)[C@H](CO)NC(=O)[C@H](Cc1c[nH]cn1)NC(=O)[C@H](Cc1c[nH]cn1)NC(=O)[C@H](CCCCN)NC(=O)[C@H](CCC(=O)O)NC(=O)[C@H](Cc1c[nH]cn1)NC(=O)[C@H](Cc1ccccc1)NC(=O)[C@H](CCCCN)NC(=O)[C@H](CCCNC(=N)N)NC(=O)[C@H](CCCNC(=N)N)NC(=O)[C@H](Cc1ccc(O)cc1)NC(=O)CNC(=O)[C@H](Cc1c[nH]cn1)NC(=O)[C@H](Cc1c[nH]cn1)NC(=O)[C@H](CCCNC(=N)N)NC(=O)[C@H](CCCCN)NC(=O)[C@H](CCC(=O)O)NC(=O)[C@H](Cc1c[nH]cn1)NC(=O)[C@H](COP(=O)(O)O)NC(=O)[C@@H](N)CC(=O)O)C(=O)N[C@@H](Cc1ccc(O)cc1)C(=O)N[C@@H](CC(=O)O)C(=O)N[C@@H](CC(N)=O)C(=O)O [Hst1] (H-D[pS]HEKRHHGYRRKFHEKHHSHREFPFYGDYGSNYLYDN-OH; N-terminus and C-terminus assumed)
- ΔH: -4.9 ± 10.1 kcal/mol
